From article PMC2809015 (Biochemistry, 2009)

Target: T1, HscA, Hsp70-class molecular chaperone of the isc operon (E. coli, UniProt P0A6Z1 1-616)
T1 sequence (looked up): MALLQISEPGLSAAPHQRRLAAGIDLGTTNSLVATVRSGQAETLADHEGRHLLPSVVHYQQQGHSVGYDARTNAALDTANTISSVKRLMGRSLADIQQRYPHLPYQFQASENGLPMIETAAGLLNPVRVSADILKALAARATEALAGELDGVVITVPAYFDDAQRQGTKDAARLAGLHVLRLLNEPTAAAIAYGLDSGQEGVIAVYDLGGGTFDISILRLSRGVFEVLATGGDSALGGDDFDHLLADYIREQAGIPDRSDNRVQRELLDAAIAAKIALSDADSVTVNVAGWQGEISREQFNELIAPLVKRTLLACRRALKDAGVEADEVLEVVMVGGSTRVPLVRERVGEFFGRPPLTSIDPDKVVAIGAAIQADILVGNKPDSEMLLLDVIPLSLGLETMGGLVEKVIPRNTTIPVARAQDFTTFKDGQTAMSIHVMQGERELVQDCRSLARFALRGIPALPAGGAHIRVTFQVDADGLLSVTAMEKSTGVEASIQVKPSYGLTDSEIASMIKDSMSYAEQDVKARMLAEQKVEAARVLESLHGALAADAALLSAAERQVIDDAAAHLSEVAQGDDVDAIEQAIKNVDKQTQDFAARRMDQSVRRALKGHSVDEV
Experiment: molecular weight filtration assay

B1: IscU, FeS cluster assembly scaffold protein (natural protein, E. coli, UniProt P0ACD4 1-128, looked up)
chain: MAYSEKVIDHYENPRNVGSFDNNDENVGSGMVGAPACGDVMKLQIKVNDEGIIEDARFKTYGCGSAIASSSLVTEWVKGKSLDEAQAIKNTDIAEELELPPVKIHCSILAEDAIKAAIADYKSKREAK
Kd: 10.3 ± 2.5 µM
